Experimental data taken from the supplement of paper PMC4604168 (melanoma cell lines).
The list shows a part of the results. Most values come without repeats; read them as rough.

What was measured:
Assay in all cases: cell count relative to DMSO control; melanoma cells; higher = more viable cells
Conditions in all cases: library dose: low library concentration; 72 h
MZ2-MEL = test system: MZ2-MEL
MeWo = test system: MeWo
RPMI7951 = test system: RPMI7951
RVH-421 = test system: RVH-421
SkMel28 = test system: SkMel28
SkMel2 = test system: SkMel2
SkMel30 = test system: SkMel30
UACC62 = test system: UACC62
SkMel5 = test system: SkMel5
UACC257 = test system: UACC257
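Also: cell number obtained by counting DAPI-stained nuclei in high-throughput microscope images with image analysis software, screen run in 1,536-well plates.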

Structure (SMILES)	cell count (MZ2-MEL) [%]	cell count (MeWo) [%]	cell count (RPMI7951) [%]	cell count (RVH-421) [%]	cell count (SkMel28) [%]	cell count (SkMel2) [%]	cell count (SkMel30) [%]	cell count (UACC62) [%]	cell count (SkMel5) [%]	cell count (UACC257) [%]
CN1CCN(c2ccc3nc(-c4c(N)c5c(F)cccc5[nH]c4=O)[nH]c3c2)CC1 [Dovitinib] + Nc1ncn([C@H]2C[C@H](O)[C@@H](CO)O2)c(=O)n1 [decitabine] (first compound 0.1 µM, partner dose 0.1 µM)	69.9	88.3	87.4	98.4	76.9	99.6	68.7	62		
CN1CCN(c2ccc3nc(-c4c(N)c5c(F)cccc5[nH]c4=O)[nH]c3c2)CC1 [Dovitinib] + C=C(c1ccc(C(=O)O)cc1)c1cc2c(cc1C)C(C)(C)CCC2(C)C [Bexarotene] (first compound 0.1 µM, partner dose 2 µM)	68.8	77	78.2	99.4	64.8	82.4	43.2	81		
CS(=O)(=O)CCNCc1ccc(-c2ccc3ncnc(Nc4ccc(OCc5cccc(F)c5)c(Cl)c4)c3c2)o1 [lapatinib] + Cn1nnc2c(C(N)=O)ncn2c1=O [temozolomide] (first compound 0.8 µM, partner dose 2 µM)	94.6	86.8	94.2	99.4	89.8	96.5	71	83.5		
CNC(=O)c1cc(Oc2ccc(NC(=O)Nc3ccc(Cl)c(C(F)(F)F)c3)cc2)ccn1 [sorafenib] + Nc1ncn([C@H]2C[C@H](O)[C@@H](CO)O2)c(=O)n1 [decitabine] (first compound 0.4 µM, partner dose 0.1 µM)	76.1	90.6	86.1	86.8	78.3	114	121	76.4		
CN1CCN(c2ccc3nc(-c4c(N)c5c(F)cccc5[nH]c4=O)[nH]c3c2)CC1 [Dovitinib] + C[C@]1(c2nc3c(C(N)=O)cccc3[nH]2)CCCN1 [Veliparib] (first compound 0.1 µM, partner dose 1.4 µM)	90.4	89.4	110	107	79.8	107	56.2	73.3		
C=CCNC1=C2C[C@@H](C)C[C@H](OC)[C@H](O)[C@@H](C)/C=C(\C)[C@H](OC(N)=O)[C@@H](OC)/C=C\C=C(/C)C(=O)NC(=CC1=O)C2=O [Tanespimycin] + CC(=O)c1c(C)c2cnc(Nc3ccc(N4CCNCC4)cn3)nc2n(C2CCCC2)c1=O [palbociclib] (first compound 0.002 µM, partner dose 0.04 µM)	81.9	70.3	75.5	63.7	54.3	79.1	70.9	75.3		
CN1CCN(c2ccc3nc(-c4c(N)c5c(F)cccc5[nH]c4=O)[nH]c3c2)CC1 [Dovitinib] + Cn1nnc2c(C(N)=O)ncn2c1=O [temozolomide] (first compound 0.1 µM, partner dose 2 µM)	76.1	74.6	99.9	84.6	69.3	96.6	50.5	80.1		
CN1CCN(c2ccc3nc(-c4c(N)c5c(F)cccc5[nH]c4=O)[nH]c3c2)CC1 [Dovitinib] + O=C(O)c1ccc2c(c1)nc(Nc1cccc(Cl)c1)c1ccncc12 [CX4945] (first compound 0.1 µM, partner dose 0.4 µM)	87.2	74.6	82.4	93.8	86.9	110	49.7	90.2		
CN1CCN(c2ccc3nc(-c4c(N)c5c(F)cccc5[nH]c4=O)[nH]c3c2)CC1 [Dovitinib] + Nc1cccc2c1CN(C1CCC(=O)NC1=O)C2=O [lenalidomide] (first compound 0.1 µM, partner dose 1 µM)	88.4	87	106	119	105	104	74.4	98.8		
C[C@@H](Oc1cc(-c2cnn(C3CCNCC3)c2)cnc1N)c1c(Cl)ccc(F)c1Cl [Crizotinib] + C=C(c1ccc(C(=O)O)cc1)c1cc2c(cc1C)C(C)(C)CCC2(C)C [Bexarotene] (first compound 0.2 µM, partner dose 2 µM)	90.7	80.5	84.3	95.5	79.9	87.7	95.4	74.2		
CNC(=O)c1cc(Oc2ccc(NC(=O)Nc3ccc(Cl)c(C(F)(F)F)c3)cc2)ccn1 [sorafenib] + OCc1c[nH]c2ccccc12 [Indole-3-carbinol] (first compound 0.4 µM, partner dose 0.8 µM)	79.2	85.7	92	89.3	96.2	108	112	99.4		
CN1CCN(c2ccc3nc(-c4c(N)c5c(F)cccc5[nH]c4=O)[nH]c3c2)CC1 [Dovitinib] + Cc1nc(Nc2ncc(C(=O)Nc3c(C)cccc3Cl)s2)cc(N2CCN(CCO)CC2)n1 [dasatanib] (first compound 0.1 µM, partner dose 0.004 µM)	73.6	80.8	72.8	97	69.7	111	56.4	90.2		
CN1CCN(c2ccc3nc(-c4c(N)c5c(F)cccc5[nH]c4=O)[nH]c3c2)CC1 [Dovitinib] + CCCS(=O)(=O)Nc1ccc(F)c(C(=O)c2c[nH]c3ncc(Cl)cc23)c1F [PLX4720] (first compound 0.1 µM, partner dose 0.08 µM)	85.2	83.9	109	87.2	80.5	101	66	72.7		
CNC(=O)c1cc(Oc2ccc(NC(=O)Nc3ccc(Cl)c(C(F)(F)F)c3)cc2)ccn1 [sorafenib] + COCC[n+]1c2c(n(Cc3cnccn3)c1C)C(=O)c1ccccc1C2=O [YM155] (first compound 0.4 µM, partner dose 0.0004 µM)		113	76.8	88.6	99.1		102	107		
CN1CCN(c2ccc3nc(-c4c(N)c5c(F)cccc5[nH]c4=O)[nH]c3c2)CC1 [Dovitinib] + CO[C@H]1C[C@@H]2CC[C@@H](C)[C@@](O)(O2)C(=O)C(=O)N2CCCC[C@H]2C(=O)O[C@H]([C@H](C)C[C@@H]2CC[C@@H](OCCO)[C@H](OC)C2)CC(=O)[C@H](C)/C=C(\C)[C@@H](O)[C@@H](OC)C(=O)[C@H](C)C[C@H](C)/C=C/C=C/C=C/1C [everolimus] (first compound 0.1 µM, partner dose 0.02 µM)	67.6	57.4	85.2	74	40.4		37.3	52.9		
C[C@@H](Oc1cc(-c2cnn(C3CCNCC3)c2)cnc1N)c1c(Cl)ccc(F)c1Cl [Crizotinib] + Nc1ncn([C@H]2C[C@H](O)[C@@H](CO)O2)c(=O)n1 [decitabine] (first compound 0.2 µM, partner dose 0.1 µM)	85.4	96.7	74.6	85.3	98.3	88.5	111	103		
C[C@@H](Oc1cc(-c2cnn(C3CCNCC3)c2)cnc1N)c1c(Cl)ccc(F)c1Cl [Crizotinib] + CO[C@H]1C[C@@H]2CC[C@@H](C)[C@@](O)(O2)C(=O)C(=O)N2CCCC[C@H]2C(=O)O[C@H]([C@H](C)C[C@@H]2CC[C@@H](OCCO)[C@H](OC)C2)CC(=O)[C@H](C)/C=C(\C)[C@@H](O)[C@@H](OC)C(=O)[C@H](C)C[C@H](C)/C=C/C=C/C=C/1C [everolimus] (first compound 0.2 µM, partner dose 0.02 µM)	78.6	63	76.7	72.1	36.6		60.5	60.3		
C=CCNC1=C2C[C@@H](C)C[C@H](OC)[C@H](O)[C@@H](C)/C=C(\C)[C@H](OC(N)=O)[C@@H](OC)/C=C\C=C(/C)C(=O)NC(=CC1=O)C2=O [Tanespimycin] + COc1ccc(-c2ccc3c(N4CCOCC4)nc(N4C[C@@H](C)O[C@@H](C)C4)nc3n2)cc1CO [KU0063794] (first compound 0.002 µM, partner dose 0.02 µM)		99	83.1	93.7	104	90.3	96.3	102	115	118
C[C@@H](Oc1cc(-c2cnn(C3CCNCC3)c2)cnc1N)c1c(Cl)ccc(F)c1Cl [Crizotinib] + CNC(=O)c1cc(Oc2ccc(NC(=O)Nc3ccc(Cl)c(C(F)(F)F)c3)cc2)ccn1 [sorafenib] (first compound 0.2 µM, partner dose 0.4 µM)	88.3	93.5	90.8	82.6	88.4		82.7	94.8		
C=CCNC1=C2C[C@@H](C)C[C@H](OC)[C@H](O)[C@@H](C)/C=C(\C)[C@H](OC(N)=O)[C@@H](OC)/C=C\C=C(/C)C(=O)NC(=CC1=O)C2=O [Tanespimycin] + Cn1nnc2c(C(N)=O)ncn2c1=O [temozolomide] (first compound 0.002 µM, partner dose 2 µM)		112	73.2	113	90.2	104	116	69.5		
C=CCNC1=C2C[C@@H](C)C[C@H](OC)[C@H](O)[C@@H](C)/C=C(\C)[C@H](OC(N)=O)[C@@H](OC)/C=C\C=C(/C)C(=O)NC(=CC1=O)C2=O [Tanespimycin] + Cn1c(Nc2ccc(C(F)(F)F)cc2)nc2cc(Oc3ccnc(-c4ncc(C(F)(F)F)[nH]4)c3)ccc21 [CHIR265] (first compound 0.002 µM, partner dose 0.08 µM)	77.9	55.9	45	68.2	58.2	83.6	62.7	53.9		
C[C@@H](Oc1cc(-c2cnn(C3CCNCC3)c2)cnc1N)c1c(Cl)ccc(F)c1Cl [Crizotinib] + Nc1nc(F)nc2c1ncn2[C@@H]1O[C@H](CO)[C@@H](O)[C@@H]1O [fludarabine] (first compound 0.2 µM, partner dose 0.2 µM)		34.8	109	93.4	82.5	9.58	19.6	79.6		
